The campaign covered roughly 220,000 compounds. About 5,700 (2.6%) were called active. The shares of active, inactive and inconclusive entries below differ from those in the screen. Calls come from the whole dose curve; as a rule, active = well fitted inhibition curve with a large enough effect; inconclusive = small, poorly fitted or top-dose-only effect; inactive = no such curve, though single readings can be large or run the other way. Potencies beside an inconclusive call are fits to weak or partial responses and may not hold up.
Target: Lysine-specific demethylase 5B (Homo sapiens) (UniProt Q9UGL1)
Assay: Primary screen for KDM5B Histone Demethylases FDH-coupled qHTS; note: nearly all actives have a fitted effect of over 70% in size; for activity change, negative = inhibition: 0% is about no effect
Details: FDH-coupled NADH fluorescence (FDH is formaldehyde dehydrogenase); activity change, negative = inhibition: at 57.7 µM (top of the series) unless noted
Outline: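 Measured: NADH fluorescence change, 30 min, RT. System: KDM5BΔAP 200 nM final, H3K4me3 peptide, α-KG, Fe(II), ascorbate, NAD⁺ plus FDH, pH 7.5 HEPES. Compounds: titrated, 10 min pre-incubation with enzyme.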
Potency is the fitted concentration of half-maximal effect; tags give direction and shape of the fitted curve.

Sequence of UniProt Q9UGL1 (Q9UGL1 whole entry, looked up): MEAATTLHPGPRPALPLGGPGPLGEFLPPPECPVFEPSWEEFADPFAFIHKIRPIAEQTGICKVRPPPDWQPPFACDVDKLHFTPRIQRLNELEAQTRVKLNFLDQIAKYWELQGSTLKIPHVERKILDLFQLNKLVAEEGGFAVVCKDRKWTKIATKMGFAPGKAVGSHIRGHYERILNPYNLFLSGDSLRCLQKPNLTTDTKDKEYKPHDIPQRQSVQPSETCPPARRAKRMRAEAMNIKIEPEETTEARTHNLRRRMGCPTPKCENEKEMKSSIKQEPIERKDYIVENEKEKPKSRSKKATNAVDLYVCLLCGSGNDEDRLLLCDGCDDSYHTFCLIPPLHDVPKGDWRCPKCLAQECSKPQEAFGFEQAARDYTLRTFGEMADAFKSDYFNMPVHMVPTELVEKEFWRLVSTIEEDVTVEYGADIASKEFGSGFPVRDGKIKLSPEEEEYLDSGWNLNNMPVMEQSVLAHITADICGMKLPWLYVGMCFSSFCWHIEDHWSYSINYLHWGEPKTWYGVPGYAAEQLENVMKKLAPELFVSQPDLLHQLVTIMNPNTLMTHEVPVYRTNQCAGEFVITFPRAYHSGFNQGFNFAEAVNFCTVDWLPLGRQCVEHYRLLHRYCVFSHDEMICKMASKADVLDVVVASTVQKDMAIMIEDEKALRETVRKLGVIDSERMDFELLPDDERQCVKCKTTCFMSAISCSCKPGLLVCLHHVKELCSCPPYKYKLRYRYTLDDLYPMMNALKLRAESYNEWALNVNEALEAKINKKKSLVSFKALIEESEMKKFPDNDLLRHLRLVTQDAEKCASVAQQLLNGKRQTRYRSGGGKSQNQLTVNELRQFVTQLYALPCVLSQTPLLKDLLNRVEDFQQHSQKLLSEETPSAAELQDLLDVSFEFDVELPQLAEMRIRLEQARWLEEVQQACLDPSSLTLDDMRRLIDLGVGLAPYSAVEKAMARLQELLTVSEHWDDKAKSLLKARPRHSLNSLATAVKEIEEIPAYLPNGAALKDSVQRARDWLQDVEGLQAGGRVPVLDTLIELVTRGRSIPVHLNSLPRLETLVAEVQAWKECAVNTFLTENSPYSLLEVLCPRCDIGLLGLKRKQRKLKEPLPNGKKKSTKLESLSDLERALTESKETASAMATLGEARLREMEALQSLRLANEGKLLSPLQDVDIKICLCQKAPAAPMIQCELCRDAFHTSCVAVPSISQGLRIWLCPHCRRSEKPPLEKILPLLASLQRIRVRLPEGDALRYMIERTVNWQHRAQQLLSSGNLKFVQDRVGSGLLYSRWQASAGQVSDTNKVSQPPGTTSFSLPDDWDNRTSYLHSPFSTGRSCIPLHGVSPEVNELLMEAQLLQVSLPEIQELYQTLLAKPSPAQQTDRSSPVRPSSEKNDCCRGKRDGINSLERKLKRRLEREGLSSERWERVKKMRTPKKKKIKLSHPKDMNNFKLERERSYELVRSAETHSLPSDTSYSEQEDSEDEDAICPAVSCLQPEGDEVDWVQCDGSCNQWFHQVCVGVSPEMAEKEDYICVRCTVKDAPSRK

| SMILES | Potency | activity change, negative = inhibition |
| --- | --- | --- |
| Cn1c(=O)c(-c2noc(C(=O)N3CCC(c4ccccc4)C3)n2)nn(-c2ccc(F)cc2)c1=O (configuration not stated) | inconclusive: 39.8 µM [inhibitor, single point] |  |
| Cc1cccc(N2CCN(C(=O)c3ccc4c(c3)c(C)c(C)n4C)CC2)c1C | inconclusive: 35.5 µM [inhibitor, single point] |  |
| CCOCCCNc1oc(-c2ccc(S(=O)(=O)N3CCCC3)cc2)nc1C#N | inconclusive: 12.6 µM [inhibitor, partial curve, poor fit] |  |
| CCOc1ccc(NC(=O)N2CCC(CN3CCCCCC3)CC2)cc1 | inconclusive: 3.55 µM [inhibitor, full curve, poor fit] |  |
| Cc1ccc(-c2cc(C(=O)OC(C)C(=O)NC3CCCC3)c3ccccc3n2)o1 (configuration not stated) | inconclusive: 20 µM [inhibitor, partial curve, poor fit] |  |
| COc1ccc(C(=O)/C=C/c2cccc(OCc3ccccc3)c2)cc1CSCC(=O)O | inconclusive: 31.6 µM [inhibitor, single point] |  |
| COCC(=O)N[C@H]1C[C@H]2C(=O)NC[C@@H](CCC(=O)NCc3cccnc3)N2C1 | inconclusive: 31.6 µM [inhibitor, partial curve, poor fit] |  |
| Clc1cccc(Nc2nc3nonc3nc2N2CCCCC2)c1 |  | inactive: -14.3% |
| c1ccc(CN2CCC[C@H]2c2nc(-c3ccnc(N4CCOCC4)c3)no2)nc1 | active: 28.2 µM |  |
| N#C/C(=C\c1cccc(Oc2ccccc2)c1)C(=O)Nc1cc(C(F)(F)F)ccc1Cl | inconclusive: 39.8 µM [inhibitor, single point] |  |
| COc1ccc(NC(=O)COC(=O)c2cc3ccccc3cc2O)cc1Cl |  | inactive: 6.82% |
| COc1ccc(CC(=O)N2C[C@@H]3C[C@H](C2)c2c(-c4ccc(NC(C)=O)cc4)ccc(=O)n2C3)cc1 | inconclusive: 28.2 µM [inhibitor, single point] |  |
| Cn1c(C(=O)NCCCc2nnc(N)s2)cc(=O)n(C)c1=O | inconclusive: 44.7 µM [inhibitor, partial curve, poor fit] |  |
| Cn1cc(C(C(=O)O)N2CCN(C=O)CC2)c2ccc(C(=O)O)cc21 (configuration not stated) | inconclusive: 25.1 µM [inhibitor, partial curve, poor fit] |  |
| O=C(c1ccc(F)cc1)N1CCN(c2cc(-c3ccc(F)cc3)[nH]n2)CC1 |  | inactive: -11.3% |
| O=Cc1cn[nH]c1-c1cc2ccccc2o1 | inconclusive: 20 µM [inhibitor, partial curve, poor fit] |  |
| O=C(CCc1ncc(-c2ccccc2Cl)o1)N1CCN(S(=O)(=O)c2ccccc2)CC1 |  | inactive: -24.6% |
